The results in this text go back to the BET-seq Pho4 binding data (Le et al. 2018).

The list shows a part of the results. Values were computed here from the reads of four pooled replicates and scatter widely.

The experiment deals with T1, Pho4 (S. cerevisiae) (UniProt P07270).
T1 sequence: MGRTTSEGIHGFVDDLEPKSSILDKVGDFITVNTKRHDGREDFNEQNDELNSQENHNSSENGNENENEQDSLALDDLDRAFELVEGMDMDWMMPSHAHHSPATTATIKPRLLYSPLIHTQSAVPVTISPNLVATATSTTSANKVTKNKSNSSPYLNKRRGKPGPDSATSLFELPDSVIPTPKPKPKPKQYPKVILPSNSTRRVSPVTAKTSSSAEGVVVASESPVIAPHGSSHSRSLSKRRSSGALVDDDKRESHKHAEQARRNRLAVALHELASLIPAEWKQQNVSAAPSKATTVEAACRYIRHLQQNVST
Kind of experiment: relative binding free energy (BET-seq); higher = weaker binding. To be noted: reference: library average.
As to TGGTACACGTGCGTGG, the “relative binding free energy” value came to 0.06 kcal/mol. Then CTGTTCACGTGGGTGT, with 0.21 kcal/mol; and GAATGCACGTGGTGAT, with -0.02 kcal/mol. Then GGATGCACGTGTATGC, with 0 kcal/mol; and TTATCCACGTGTGTGA, with 0.01 kcal/mol. For the sequence AAATACACGTGGCGGG, the “relative binding free energy” value amounted to 0.04 kcal/mol. Then CGTGGCACGTGGCGAT, with -0.16 kcal/mol; and TCATGCACGTGGGAAG, with 0.03 kcal/mol; and TTATCCACGTGGGTTA, with -0.12 kcal/mol. Turning to ACGCGCACGTGGGGGT, the “relative binding free energy” value is -0.36 kcal/mol. TGGGACACGTGAGGAA: the “relative binding free energy” value is 0.32 kcal/mol.

For the sequence GCGAACACGTGATGGT, the “relative binding free energy” value was determined as 0.3 kcal/mol. For the sequence AGTTTCACGTGTATAT, the “relative binding free energy” value amounted to 0.18 kcal/mol. With CGTGGCACGTGCGAGA, the “relative binding free energy” value was -0.07 kcal/mol.

For the sequence TATATCACGTGTTGGG, the “relative binding free energy” value worked out at 0.13 kcal/mol. Then GTTCTCACGTGAGTAT, with 0.31 kcal/mol.

In the case of TGCGTCACGTGTTGAA, the “relative binding free energy” value was 0.13 kcal/mol.

Regarding TTCAGCACGTGTGATA, the “relative binding free energy” value came out at 0.07 kcal/mol. Then TTTCGCACGTGGGGCA, with -0.21 kcal/mol; and GTGATCACGTGGGTAC, with 0 kcal/mol. Then GGTGCCACGTGTGTTG, with -0.13 kcal/mol; and GCCCGCACGTGTGGGT, with 0.06 kcal/mol. In the case of TATTACACGTGTGCGC, the “relative binding free energy” value came to 0.27 kcal/mol. Then GAGGTCACGTGTTCTA, with 0.24 kcal/mol. AGCGGCACGTGGGTTG: the “relative binding free energy” value was -0.2 kcal/mol.

CGTAGCACGTGACGGT: the “relative binding free energy” value is 0.09 kcal/mol. CCGGTCACGTGATTTT: the “relative binding free energy” value is 0.39 kcal/mol. Next, ATTGACACGTGTTAAG: 0.09 kcal/mol.

For the sequence TTGCGCACGTGTGCGT, the “relative binding free energy” value is -0.21 kcal/mol.

Consider TCTAGCACGTGGTGGA, for which the “relative binding free energy” value is -0.12 kcal/mol. Then AGCAGCACGTGTTGGT, with -0.08 kcal/mol; and TGAATCACGTGTGAGC, with 0.3 kcal/mol. Take AAACTCACGTGAAGGT: the “relative binding free energy” value was determined as 0.49 kcal/mol. Then TTGAGCACGTGGCTTA, with -0.22 kcal/mol. Turning to GTGATCACGTGATAGG, the “relative binding free energy” value was 0.21 kcal/mol.

For GTGTTCACGTGCTTTT, the “relative binding free energy” value came to 0.25 kcal/mol. For TTGTTCACGTGTCGTC, the “relative binding free energy” value was determined as 0.1 kcal/mol. Turning to AGCGTCACGTGATTTT, the “relative binding free energy” value was determined as 0.26 kcal/mol. Then TGAAGCACGTGTGGGG, with -0.03 kcal/mol; and GTTTTCACGTGGGGCT, with 0.29 kcal/mol. For TGTGGCACGTGACAGT, the “relative binding free energy” value was -0.02 kcal/mol.

Regarding GTGGACACGTGGCAGG, the “relative binding free energy” value was 0.12 kcal/mol. For the sequence ACATGCACGTGGGGCG, the “relative binding free energy” value was -0.09 kcal/mol. Take CGAGGCACGTGTGGCG: the “relative binding free energy” value was -0.18 kcal/mol. With GAAGGCACGTGTAATT, the “relative binding free energy” value is 0.04 kcal/mol. Consider GGTATCACGTGGAGAG, for which the “relative binding free energy” value was 0.22 kcal/mol. Next, GGCGGCACGTGTGGGC: 0.13 kcal/mol; TTATACACGTGTTCAT: -0.12 kcal/mol. In the case of AGCGTCACGTGTTTGA, the “relative binding free energy” value was -0.01 kcal/mol. With GGTGGCACGTGGAAAT, the “relative binding free energy” value was -0.04 kcal/mol. Then GGAGGCACGTGCGTGG, with -0.11 kcal/mol. Next, CGGGACACGTGTTCGG: 0.09 kcal/mol; GGAATCACGTGTTGAG: 0.16 kcal/mol.

With GATTTCACGTGTAGGC, the “relative binding free energy” value is 0.3 kcal/mol. Take TTAGTCACGTGCGGTA: the “relative binding free energy” value is 0.05 kcal/mol.

AGGATCACGTGGGTAT: the “relative binding free energy” value is -0.05 kcal/mol.

On to GTGAACACGTGGGGCA, for which the “relative binding free energy” value was -0.16 kcal/mol. As to GGAGCCACGTGGGGGC, the “relative binding free energy” value is -0.31 kcal/mol. Consider TTGAACACGTGACGTT, for which the “relative binding free energy” value was found to be 0.21 kcal/mol. Then GGTGTCACGTGTCGTC, with 0.17 kcal/mol. Take CAGGACACGTGGGATG: the “relative binding free energy” value is -0.1 kcal/mol. Next, TTGTCCACGTGATGTA: 0.09 kcal/mol. Then GGTAGCACGTGTGAAT, with 0.06 kcal/mol; and TTGAACACGTGTTTTG, with 0.09 kcal/mol; and GCGTCCACGTGTGGTG, with 0.01 kcal/mol.

For the sequence TTGTGCACGTGGGAAC, the “relative binding free energy” value is -0.03 kcal/mol. As for GAGTACACGTGGTGTG, the “relative binding free energy” value worked out at 0.18 kcal/mol. In the case of CATGTCACGTGGATGG, the “relative binding free energy” value is 0.07 kcal/mol. In the case of CAGTGCACGTGGGATG, the “relative binding free energy” value is -0.18 kcal/mol.

On to GGGTGCACGTGAATTA, for which the “relative binding free energy” value stood at 0.26 kcal/mol.

Consider CGAGTCACGTGTGTAG, for which the “relative binding free energy” value was found to be 0.06 kcal/mol.

For the sequence GCTTGCACGTGGTGGT, the “relative binding free energy” value came out at 0.06 kcal/mol.

As to GTAAGCACGTGGTGCT, the “relative binding free energy” value is -0.12 kcal/mol. As to AGGTACACGTGCTGTT, the “relative binding free energy” value is -0.01 kcal/mol. As to AGGTACACGTGCTGCG, the “relative binding free energy” value was determined as 0.1 kcal/mol.

Regarding TGATTCACGTGCGAGT, the “relative binding free energy” value was found to be 0.31 kcal/mol.

On to TTTAACACGTGTGCAT, for which the “relative binding free energy” value came to 0.01 kcal/mol. Next, CCAGGCACGTGTGTTG: -0.05 kcal/mol. As for CGCTTCACGTGGTGTA, the “relative binding free energy” value was determined as 0.19 kcal/mol. On to GGTGACACGTGAGGCA, for which the “relative binding free energy” value was 0.17 kcal/mol. Next, GATGGCACGTGGAATT: 0.05 kcal/mol.

Consider GTGTCCACGTGTGTTA, for which the “relative binding free energy” value stood at 0.24 kcal/mol. With GATGTCACGTGGGATG, the “relative binding free energy” value was 0.13 kcal/mol. Then TGATGCACGTGCGGCT, with -0.1 kcal/mol; and GTGAACACGTGGTTGA, with 0.08 kcal/mol. Next, AGGTGCACGTGTCTGG: 0.03 kcal/mol; TAGAGCACGTGAGTTT: 0.1 kcal/mol. Then TTAATCACGTGCCGTG, with 0.18 kcal/mol; and GGGTCCACGTGGATTA, with 0.22 kcal/mol; and TTATGCACGTGTGGTG, with -0.07 kcal/mol.

Turning to CTGGCCACGTGTTTTG, the “relative binding free energy” value was found to be 0 kcal/mol.

Regarding TGTGTCACGTGGATGC, the “relative binding free energy” value was 0.01 kcal/mol. Next, TGTGACACGTGTCGGT: -0.2 kcal/mol; TATTGCACGTGATTTA: 0.11 kcal/mol; ACGTGCACGTGATGTG: 0.13 kcal/mol. Take TGGGGCACGTGCGAGT: the “relative binding free energy” value was -0.1 kcal/mol.

For TATGACACGTGTAAAT, the “relative binding free energy” value turned out to be 0.24 kcal/mol.

Consider AATGACACGTGGCGGA, for which the “relative binding free energy” value came out at 0.22 kcal/mol. Then TGATCCACGTGGTGGG, with 0 kcal/mol; and AGGCGCACGTGGGGTG, with -0.2 kcal/mol; and GGAGGCACGTGCTGTT, with -0.21 kcal/mol.

In the case of TGTTTCACGTGGAGAG, the “relative binding free energy” value is 0.26 kcal/mol. As to TTCGTCACGTGGTTAA, the “relative binding free energy” value worked out at 0.09 kcal/mol. Turning to CGACTCACGTGGGAGT, the “relative binding free energy” value was found to be 0.29 kcal/mol.

As for CTTAACACGTGGGGTT, the “relative binding free energy” value is -0.15 kcal/mol.

TTGGGCACGTGAGTGT: the “relative binding free energy” value amounted to 0.12 kcal/mol.

Consider TGTATCACGTGGTTCA, for which the “relative binding free energy” value is 0.1 kcal/mol. Next, ATTGTCACGTGTCTAA: 0.24 kcal/mol; TGTAACACGTGGCCGG: -0.07 kcal/mol.

In the case of ATGCGCACGTGGTTGG, the “relative binding free energy” value is -0.22 kcal/mol. Then TCAGGCACGTGGGTAG, with -0.24 kcal/mol.

In the case of TCAGGCACGTGTGAGA, the “relative binding free energy” value stood at 0.06 kcal/mol.

As to CGGGGCACGTGTAGTT, the “relative binding free energy” value is -0.02 kcal/mol.

With AGAGTCACGTGGCGGA, the “relative binding free energy” value turned out to be 0.02 kcal/mol. Consider CTGGTCACGTGGATAT, for which the “relative binding free energy” value is -0.02 kcal/mol.
